# Test system: A. baumannii lipolytic activity
# Details: ratio of IC50 values
# From the text: Lipolytic inhibition (%) = 100 - remaining lipolytic activity.
structure (smiles),measurement,value
"O=c1cc(-c2ccc(O)cc2)oc2c(-c3c(O)cc(O)c4c(=O)cc(-c5ccc(O)cc5)oc34)c(O)cc(O)c12 [Cupressuflavone (C4), cupressuflavone]",times more potent against A. baumannii lipases compared to orlistat,approximately 3.89 times

# — article PMC12457599, “Targeting Acinetobacter baumannii lipase by coniferous species through metabolomics supported approach” (Scientific Reports, 2025)
